The results in this text go back to US20240076391A1 (ONCURIOUS, published 2024).

The experiment addresses T1, human CCR8 (human, UniProt P51685 1-355).
T1 construct: also called hCCR8
Put plainly: flow cytometry, human CCR8 on stably transfected HEK293 cells. The method, then:
The twelve multivalent VHH-Fc fusions were evaluated for their ability to bind to human CCR8 on stably transfected HEK293 cells by means of flow cytometry experiments. Cells were incubated with different concentrations of the multivalent VHH-Fc fusions for 30 minutes at 4° C., followed by two washes with FACS buffer, followed by 30 minutes incubation at 4° C. with R-Phycoerythrin AffiniPure F(ab′) 2 Fragment Goat Anti-human IgG (Jackson ImmunoResearch, cat. #109-116-098), followed by two washing steps. Dead cells were stained using TOPRO3 (Thermo Fisher Scientific, T3605).

Chain of human CCR8 (P51685 whole entry, the tested form may be a part): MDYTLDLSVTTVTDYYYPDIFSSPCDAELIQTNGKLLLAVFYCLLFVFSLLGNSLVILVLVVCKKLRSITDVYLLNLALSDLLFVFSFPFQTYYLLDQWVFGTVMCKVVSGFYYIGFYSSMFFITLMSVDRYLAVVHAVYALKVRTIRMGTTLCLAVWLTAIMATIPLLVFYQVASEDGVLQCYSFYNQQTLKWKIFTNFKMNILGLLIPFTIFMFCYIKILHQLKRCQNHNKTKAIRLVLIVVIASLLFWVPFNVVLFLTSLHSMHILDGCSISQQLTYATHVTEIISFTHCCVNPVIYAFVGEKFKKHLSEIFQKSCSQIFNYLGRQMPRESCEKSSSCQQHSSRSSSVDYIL

B1: VHH-Fc-213 (Fc fusion)
chain: EVQLVESGGGLVQPGGSLRLSCAASGRAFSSYNMGWFRQAPGKERDFVATISSSGTNYANSVKGRFTISRDNAKNTVYLQMNSLRPEDTAVYYCNAKTVTRTGGVITGSRIEYDYWGQGTLVTVSSGGGGSGGGGS[letters of human IgG1 Fc omitted]
Regarding B1, the binding result is “binds”.

B2: VHH-Fc-223 (Fc fusion)
chain: EVQLVESGGGLVQPGGSLRLSCAASGSTFSIKSIGWYRQAPGKQRELVADITRGAGINYADSVKGRFTISRDNTKNTMYLQMNSLRPEDTAVYYCNVKTIKRTGGIMTGSKIEYDYWGQGTLVTVSSGGGGSGGGGSGGGGSGGGGS[letters of human IgG1 Fc omitted]
In the case of B2, the binding result is reported as “binds”.

B3: VHH-Fc-212 (Fc fusion)
chain: EVQLVESGGGLVQPGGSLRLSCAASGRAFSSYNMGWFRQAPGKERDFVATISSSGTNYANSVKGRFTISRDNAKNTVYLQMNSLRPEDTAVYYCNAKTVTRTGGVITGSRIEYDYWGQGTLVTVSS[letters of human IgG1 Fc omitted]
B3: the binding result was “binds”.

B4: VHH-Fc-214 (Fc fusion)
chain: EVQLVESGGGLVQPGGSLRLSCAASGRAFSSYNMGWFRQAPGKERDFVATISSSGTNYANSVKGRFTISRDNAKNTVYLQMNSLRPEDTAVYYCNAKTVTRTGGVITGSRIEYDYWGQGTLVTVSSGGGGSGGGGSGGGGSGGGGS[letters of human IgG1 Fc omitted]
Turning to B4, the binding result is “binds”.

B5: VHH-Fc-221 (Fc fusion)
chain: EVQLVESGGGLVQPGGSLRLSCAASGSTFSIKSIGWYRQAPGKQRELVADITRGAGINYADSVKGRFTISRDNTKNTMYLQMNSLRPEDTAVYYCNVKTIKRTGGIMTGSKIEYDYWGQGTLVTVSS[letters of human IgG1 Fc omitted]
On to B5, for which the binding result is listed as “binds”.

B6: VHH-Fc-200 (Fc fusion)
chain: EVQLVESGGGLVQPGGSLRLSCAASRSIYNVMAMGWYRQAPGKERELVAVVWSSGNTNYADSVKGRFTVSRDNAKNTVYLQMNSLRPEDTAVYYCYSKSLIGTSRYEIWGQGTLVTVSS[letters of human IgG1 Fc omitted]
Regarding B6, the binding result is “binds”.

B7: VHH-Fc-202 (Fc fusion)
chain: EVQLVESGGGLVQPGGSLRLSCAASRSIYNVMAMGWYRQAPGKERELVAVVWSSGNTNYADSVKGRFTVSRDNAKNTVYLQMNSLRPEDTAVYYCYSKSLIGTSRYEIWGQGTLVTVSSGGGGSGGGGSGGGGSGGGGS[letters of human IgG1 Fc omitted]
As for B7, the binding result is given as “binds”.

B8: VHH-Fc-201 (Fc fusion)
chain: EVQLVESGGGLVQPGGSLRLSCAASRSIYNVMAMGWYRQAPGKERELVAVVWSSGNTNYADSVKGRFTVSRDNAKNTVYLQMNSLRPEDTAVYYCYSKSLIGTSRYEIWGQGTLVTVSSGGGGSGGGGS[letters of human IgG1 Fc omitted]
In the case of B8, the binding result was “binds”.

B9: VHH-Fc-222 (Fc fusion)
chain: EVQLVESGGGLVQPGGSLRLSCAASGSTFSIKSIGWYRQAPGKQRELVADITRGAGINYADSVKGRFTISRDNTKNTMYLQMNSLRPEDTAVYYCNVKTIKRTGGIMTGSKIEYDYWGQGTLVTVSSGGGGSGGGGS[letters of human IgG1 Fc omitted]
notes: also called VHFc-222
B9: the binding result is given as “binds”.
